Test results: PubChem BioAssay AID624417 (National Center for Advancing Translational Sciences (NCATS), 2012)
Hit rate of the full screen: of about 410,000 compounds, about 6,400 (1.6%) were called active. The shares of active, inactive and inconclusive entries below differ from those in the screen. The call rests on the fitted dose curve; in most records, active means well fitted inhibition curve with a large enough effect; inconclusive means small, poorly fitted or top-dose-only effect; inactive means no such curve, though single readings can be large or run the other way. Potencies of inconclusive entries are left out as doubtful fits.

What follows are compounds tested against Glucagon-like peptide 1 receptor (Homo sapiens) (UniProt P43220) (assay: qHTS of GLP-1 Receptor Inverse Agonists (Inhibition Mode)). Conditions: HEK293 GLP-1R CRE-luciferase, luminescence, 24 h, GLP-1R form is constitutively active; activity change, negative = inhibition: at 38.3 µM (top of the series) unless noted.
UniProt P43220, sequence (P43220 whole entry, looked up): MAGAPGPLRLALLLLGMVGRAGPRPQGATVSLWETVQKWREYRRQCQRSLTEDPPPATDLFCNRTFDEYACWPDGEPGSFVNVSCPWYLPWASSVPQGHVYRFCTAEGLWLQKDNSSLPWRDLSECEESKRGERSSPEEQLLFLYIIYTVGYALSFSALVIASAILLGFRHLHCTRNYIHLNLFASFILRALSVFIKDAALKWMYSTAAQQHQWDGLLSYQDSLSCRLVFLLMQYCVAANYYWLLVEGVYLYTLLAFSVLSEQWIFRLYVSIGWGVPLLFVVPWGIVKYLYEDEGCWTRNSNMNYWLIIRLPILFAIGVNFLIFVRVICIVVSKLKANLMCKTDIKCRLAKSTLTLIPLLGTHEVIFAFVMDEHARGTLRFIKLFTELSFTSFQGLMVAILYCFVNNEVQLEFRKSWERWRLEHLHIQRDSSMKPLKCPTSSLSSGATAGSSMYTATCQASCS
Summary of the method: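 HEK293 cells stably co-expressing constitutively active GLP-1R and a cAMP-responsive luciferase reporter were seeded in DMEM with 10% Nu serum, given compounds after 12 h, and incubated 24 h at 37 deg C. Luminescence was then read.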
Further: nearly all actives have a fitted effect of over 55% in size.
On the % scale 0 is the no-effect control and ±100 the full control effect; potency means the concentration at half of the fitted maximal effect; tags describe the fitted curve by direction and shape.

SMILES	activity change, negative = inhibition	Potency
COc1cc(NC(=O)C2CCN(S(=O)(=O)c3ccc4c(c3)CCCC(=O)N4)CC2)cc(OC)c1	inactive: 7.63%	–
CCOc1ccccc1NC(=O)CSc1nc2c(sc3ccccc32)c(=O)n1CCCC(=O)NC1CCCC1	inactive: -29.3%	–
O=C(Nc1nccs1)c1csc2c1CCCC2	–	inconclusive [inhibitor, single point]
COc1ccccc1C(=O)NC(CCSC)C(=O)NNC(=O)c1ccncc1 (centres undefined)	inactive: 11.5%	–
CC(C)C[C@H](NC(=O)c1nc[nH]c1C(=O)NCc1ccccc1)C(=O)OCc1ccccc1	–	inconclusive [inhibitor, partial curve, poor fit]
CCOC(=O)c1ccc(NC(=O)c2cccc(S(=O)(=O)N3CCOCC3)c2)cc1	–	inconclusive [inhibitor, single point]
CC(C)(C)c1nnc(NC(=O)C2c3ccccc3Oc3ccccc32)s1	–	inconclusive [inhibitor, partial curve, poor fit]
COc1ccccc1CNS(=O)(=O)c1cc(C(=O)NCc2ccccn2)c(Cl)cc1Cl	–	inconclusive [inhibitor, single point]
O=C(/C=C/c1ccco1)Nc1cccc(NC(=O)/C=C/c2ccco2)n1	–	inconclusive [inhibitor, single point]
CC1(Cc2ccc(Cl)cc2)C(=O)Nc2ccc(S(=O)(=O)NC3CCCCC3)cc21 (centres undefined)	–	inconclusive [inhibitor, single point]
Fc1ccc(COc2ccc3ccccc3c2CNc2nn[nH]n2)cc1	–	inconclusive [inhibitor, single point]
COc1ccc(/C=C/C2=CCN(Cc3ccc(OC)cc3)CC2)cc1	inactive: -26.8%	–
CN(C(=O)/C=C/c1ccc2c(c1)OCO2)c1ccccc1	inactive: 5.9% [at 7.66 µM]	–
CCCCCCn1c(=O)c(-c2ccccc2)c(O)c2ccccc21	–	inconclusive [inhibitor, partial curve, poor fit]
CC(=O)c1cccc(NS(=O)(=O)c2cc(-c3onc(C)c3C)ccc2C)c1	–	inconclusive [inhibitor, single point]
CCOC(=O)C1CCN(CCCSc2ccc(Cl)cc2)CC1	–	inconclusive [inhibitor, partial curve, poor fit]
CCN(CC(=O)Nc1ccccc1C(F)(F)F)C(=O)Cc1ccc2c(c1)CCC2	–	inconclusive [inhibitor, single point]
O=C(Nc1ccccc1Oc1cccnc1)C1CCCN(C/C=C/c2ccccc2)C1 (centres undefined)	–	inconclusive [inhibitor, partial curve, poor fit]
CN(c1ccccc1)S(=O)(=O)c1cccc(NC(=O)CCNC(=O)c2ccc(Cl)cc2)c1	–	inconclusive [inhibitor, single point]
NC(Cc1ccc(F)cc1)c1csc(NC(=O)NC(c2ccccc2)c2ccccc2)n1 (centres undefined)	–	inconclusive [inhibitor, single point]
C[C@]12c3[nH]c4ccc(Cl)cc4c3CCN1C(=O)[C@@H](CC(=O)NCc1cccc(C(F)(F)F)c1)C[C@@H]2C(=O)N1CCOCC1	–	inconclusive [inhibitor, single point]
O=C(CSCc1ccc(Br)cc1)Nc1ccc(S(=O)(=O)N2CCCCCC2)cc1	–	inconclusive [inhibitor, partial curve, poor fit]

SMILES	activity change, negative = inhibition	Potency
Cc1ccc(NC(=O)C(C)OC(=O)c2ccc(NS(=O)(=O)c3ccc(F)c(F)c3)cc2)cc1 (centres undefined)	–	inconclusive [inhibitor, single point]
CC1=C(C(=O)Nc2ccccc2)C(c2ccc(C)cc2)N=C(Nc2nc3ccccc3o2)N1 (centres undefined)	–	inconclusive [inhibitor, partial curve, poor fit]
CCCn1c(=O)c(C(=O)NCCc2ccc(OC)cc2)c(O)c2ccccc21	–	inconclusive [inhibitor, partial curve, poor fit]
CC1CCCC(NC(=O)CN2CCN(S(=O)(=O)c3ccc(Br)s3)CC2)C1C (centres undefined)	–	inconclusive [inhibitor, partial curve, poor fit]
CNC(=S)N1N=C(c2ccc(Br)cc2)CC1c1ccc(Br)cc1 (centres undefined)	–	inconclusive [inhibitor, single point]
Cc1cc(=O)n(Cc2ccccc2)c2c(C)cccc12	–	inconclusive [inhibitor, partial curve]
COC(=O)[C@]12CCCCC=C1N(CCC1=CCCCC1)C(=O)[C@H](CC(=O)NCCc1ccccc1OC)C2	–	inconclusive [inhibitor, single point]
Cc1cccc(N2CN=C3SCC(=O)N3C2)c1	inactive: -21.7%	–
CCC(=O)N/N=C/c1ccc(OS(=O)(=O)c2ccccc2)cc1	inactive: -22.3%	–
CCCCNC(=O)C(CC)(ONc1ccccc1C(F)(F)F)c1ccccc1 (centres undefined)	–	inconclusive [inhibitor, single point]
CCC(C)C(CO)NCCCn1cnc(C(=O)Nc2ccc(C)c(C)c2)n1 (centres undefined)	–	inconclusive [inhibitor, partial curve]
Cc1ccc2[nH]c(=O)c(CN3CCCCC3)c(-c3ccccc3)c2c1	–	inconclusive [inhibitor, partial curve, poor fit]
CN(CC(=O)Nc1cccc(F)c1)C(=O)CCSc1ccc(F)cc1	–	inconclusive [inhibitor, full curve, poor fit]
O=C(Cc1ccccc1)NNc1ccc2ccccc2c1	–	active: 0.562 µM
CC(C)(O)C#Cc1ccc(C(=O)N2CCN(c3ccccc3)CC2)cc1	–	inconclusive [inhibitor, single point]
Cc1ccc(N2CC(c3nc(-c4ccc(Cl)cc4)no3)CC2=O)cc1F (centres undefined)	inactive: 18.4%	–
CCN(c1ccccc1)S(=O)(=O)c1ccc(OC)c(NC(=O)C2CCC2)c1	–	inconclusive [inhibitor, partial curve]
Cc1cc(C)c(S(=O)(=O)Nc2cnc3ccccc3c2)c(C)c1	–	inconclusive [inhibitor, single point]
CCc1nc2ccc(C(=O)NCCCN(C)C)cn2c1N(C)CCCc1ccccc1	–	inconclusive [inhibitor, partial curve, poor fit]
CCc1ccc(S(=O)(=O)c2nnn3c2nc(N2CCOCC2)c2sccc23)cc1	inactive: 11%	–
Cc1cccc(-n2nnc(C(=O)NC3CCCc4ccccc43)c2N)c1 (centres undefined)	–	inconclusive [inhibitor, partial curve, poor fit]
Cc1cc(C(=O)CSc2ccc(F)cc2)cc(C)c1O	–	inconclusive [inhibitor, single point]

SMILES	activity change, negative = inhibition	Potency
Cc1ccc(S(=O)(=O)Nc2ccc(Cl)cc2)cc1NC(=O)c1cc2c(s1)CCCC2	–	inconclusive [inhibitor, partial curve, poor fit]
CCOc1cc(/C=C2\SC(=S)N(Nc3ccccc3)C2=O)ccc1O	–	inconclusive [inhibitor, single point]
CCn1c(CNC(=O)C2CCCCC2)cc2ccccc21	–	inconclusive [inhibitor, partial curve, poor fit]
COc1cc(/C=N/O)cc(Br)c1OCc1cccc(Cl)c1	–	inconclusive [inhibitor, full curve, poor fit]
CCOC(=O)c1cccc(NC(=O)CC2C(=O)N(c3ccc(Cl)cc3)C(=O)N2C2CCCC2)c1 (centres undefined)	–	active: 12.6 µM
CCc1nnc(NC(=O)CCC(=O)N2CCN(c3cc(C)ccc3C)CC2)s1	–	inconclusive [inhibitor, single point]
CCc1ccccc1NC(=O)Cn1c(=O)n(CCCCCC(=O)NCc2ccc(C)cc2)c(=O)c2sccc21	inactive: 5.96%	–
O=C(Cn1nnc(-c2ccccc2)c1COc1ccc2ccccc2c1)NCC1CC1	–	inconclusive [inhibitor, single point]
COc1ccccc1C1(O)CCN(CC(=O)Nc2nc(-c3ccccc3)cs2)CC1	–	inconclusive [inhibitor, single point]
Cc1ccc(S(=O)(=O)CCC(=O)Nc2ccc(OC(F)(F)F)cc2)cc1	inactive: -22.9%	–
COc1cc(OC)c2c(-c3cccc(-c4ccc(N(C)C)cc4)c3)cc(=O)oc2c1	–	inconclusive [inhibitor, full curve, poor fit]
O=C(CNC(=O)c1ccc(Cl)cc1)c1ccccc1	–	inconclusive [inhibitor, single point]
CC(C)=CCC/C(C)=C/C=N/NC(=O)c1ccccc1[N+](=O)[O-]	–	inconclusive [inhibitor, single point]
O=C(CSc1n[nH]c(-c2ccccc2)n1)c1ccccc1	inactive: 11.1%	–
COc1ccc(C(=O)N2CCC(c3nc4ccccc4s3)CC2)cc1Cl	inactive: -17%	–
CCc1ccc(NCc2cc3cc4c(cc3n(CC(=O)Nc3ccccc3OC)c2=O)OCCO4)cc1	inactive: 17.7%	–
Cc1ccc([C@H]2C[C@@H](n3cc(-c4ccc(F)cc4)nn3)[C@H](O)CN2C(=O)c2cccs2)cc1	–	inconclusive [inhibitor, single point]
COc1cc(C(=O)Nc2ccc3c(c2)OCCO3)ccc1OC(F)F	inactive: 49.4%	–
O=C(NNC(=O)c1cccc(O)c1)Nc1ccc([N+](=O)[O-])cc1	inactive: -0.724%	–
O=C(Nc1ccc(F)cc1)NC1(C(=O)NCc2cccs2)CCCCC1	–	inconclusive [inhibitor, partial curve, poor fit]
